Results as given in PubChem BioAssay AID624296 (National Center for Advancing Translational Sciences (NCATS), 2012).
Among all 350,000 compounds or so, about 9,900 (2.8%) were called active. The inconclusive results got no clear call from the source; some entries with a clear call stand among them for comparison. Calls follow the shape of the dose curve; as a rule, active = well fitted activation curve with a large enough effect; inconclusive = small, poorly fitted or top-dose-only effect; inactive = no such curve, though single readings can be large or run the other way. No potency is given beside an inconclusive call; the fits are too rough.

assay: A quantitative high throughput screen for small molecules that induce DNA re-replication in MCF 10a normal breast cells.; also: nearly all actives have a fitted effect of over 50% in size; as to activity, positive = re-replication: % of control where 0% means no effect; conditions: MCF 10A DNA re-replication, Hoechst nuclear intensity, 48 h; activity, positive = re-replication: at 46.1 µM (top of the series)
Potency is read from the fitted curve at half-maximal effect; tags tell the direction and shape of the fitted curve.

Q: For `CCOC(=O)c1c(NC(=O)Cc2cccs2)sc2c1CCCC2`, which Potency is on record?
A: inconclusive [activator, single point]

Q: Which Potency does the source give for `COc1ccc(C(=O)NC(=S)Nc2ccc(CN3CCCCC3)cc2)cc1Cl` here?
A: inconclusive [activator, single point]

Q: For `O=S(=O)(NOCc1ccc(Cl)cc1)c1ccc(Cl)cc1`, which Potency is on record?
A: inconclusive [activator, single point]

Q: For `O=C(NCc1ccco1)c1ccc2c(c1)C(=O)c1ccccc1-2`, which Potency is on record?
A: inconclusive [activator, single point]

Q: Which Potency does the source give for `Sc1oc(-c2ccccc2)cc1C=Nc1ccccc1` here?
A: inconclusive [activator, partial curve, poor fit]

Q: With `COCC(=O)Nc1cc(C)cn(Cc2c(F)cccc2Cl)c1=O` as the compound, how does the Potency read?
A: inconclusive [activator, partial curve, poor fit]

Q: Which Potency does the source give for `COc1cccc(/C=C/c2[nH]c(=O)[nH]c(=O)c2[N+](=O)[O-])c1O` here?
A: inconclusive [activator, partial curve, poor fit]

Q: With `CC(C)N1CCN(c2ccc(OC[C@H]3CO[C@](Cn4cncn4)(c4ccc(Cl)cc4Cl)O3)cc2)CC1` as the compound, how does the Potency read?
A: inconclusive [activator, single point]

Q: Which “activity, positive = re-replication” value does the source give for `Fc1ccc(N2CCN(C3CCC(c4ccccc4)CC3)CC2)cc1` (stereo not drawn) here?
A: inactive: 5.85%

Q: For `CCOCCCNC(=O)c1c(N)n(-c2ccc3c(c2)OCO3)c2nc3ccccc3nc12`, which Potency is on record?
A: active: 23.1 µM

Q: Which “activity, positive = re-replication” value does the source give for `Cc1ccccc1Nc1c(-c2ccccn2)nc2c(C)cccn12` here?
A: inactive: 0.266%

Q: For `COc1ccc(-c2oc(=O)c3cc(OC)c(OC)cc3c2/C=C/c2ccc(OC(C)=O)cc2)cc1`, which Potency is on record?
A: inconclusive [activator, partial curve, poor fit]

Q: Which Potency does the source give for `Cc1cc(NC(=O)CSc2nccn2-c2cccc(C)c2C)no1` here?
A: inconclusive [activator, full curve, poor fit]

Q: For `Cc1ccccc1N1CCN(C(=O)NCc2cccc(Cl)c2)CC1`, which Potency is on record?
A: inconclusive [activator, partial curve, poor fit]

Q: Which “activity, positive = re-replication” value does the source give for `O=C(CCl)N1c2ccccc2OCC1c1ccccc1` (stereo not drawn) here?
A: inactive: 106%

Q: With `CCc1ccc(N=C2NC(=O)/C(=C/c3cc(Br)c(OCC(=O)O)c(OC)c3)S2)cc1` as the compound, how does the Potency read?
A: inconclusive [activator, single point]

Q: For `O=C(Nc1c[nH]c(=O)[nH]c1=O)c1cc([N+](=O)[O-])cc([N+](=O)[O-])c1`, which “activity, positive = re-replication” value is on record?
A: inactive: -0.14%

Q: For `COc1cc(C(=O)Nc2ccc(Nc3ccccc3)cc2)cc(OC)c1OC`, which Potency is on record?
A: active: 20.6 µM

Q: For `Cc1ccccc1NC(=O)c1ccc(CN(c2ccccc2)S(=O)(=O)c2ccccc2)cc1`, which “activity, positive = re-replication” value is on record?
A: inactive: 5.78%

Q: For `CCc1c(C(=O)OCc2ccccc2)[nH]c(C)c1C`, which Potency is on record?
A: inconclusive [activator, single point]

Q: Which “activity, positive = re-replication” value does the source give for `CCNc1nc(NC#N)nc(SCC(=O)OCC)n1` here?
A: inactive: 0.554%

Q: For `CN(c1cccc(NC(=O)c2ccc(N(C)S(=O)(=O)c3ccccc3)cc2)c1)S(C)(=O)=O`, which Potency is on record?
A: inconclusive [activator, single point]

Q: Which Potency does the source give for `CN1CCC(N(C)C(=O)c2cc(-c3ccc(F)cc3)nc3ccccc23)CC1` here?
A: inconclusive [activator, partial curve, poor fit]

Q: For `O=C(COC(=O)c1ccc([N+](=O)[O-])o1)Nc1ccc(N2CCOCC2)cc1`, which “activity, positive = re-replication” value is on record?
A: inactive: -15.7%

Q: For `Cc1onc(-c2ccccc2Cl)c1C(=O)Nc1cccc2cccnc12`, which Potency is on record?
A: active: 8.2 µM

Q: Which Potency does the source give for `COc1ccccc1CN(C)CC(=O)NC(=O)NC1CCCCC1` here?
A: inconclusive [activator, partial curve, poor fit]

Q: For `Cc1ccc(O)c(NC(=S)NC(=O)Cc2ccc(Cl)cc2)c1`, which Potency is on record?
A: inconclusive [activator, single point]

Q: For `COc1ccc(CN(Cc2cc3cc4c(cc3[nH]c2=O)OCO4)C(=O)NC2CCCCC2)cc1`, which “activity, positive = re-replication” value is on record?
A: inactive: 6.73%

Q: Which “activity, positive = re-replication” value does the source give for `CCCNC(=O)c1cccc(Cn2nc(C)c(Br)c2C)c1` here?
A: inactive: -15.7%

Q: Which Potency does the source give for `COc1ccc(-c2csc(Nc3ccc(C)cn3)n2)cc1` here?
A: inconclusive [activator, partial curve, poor fit]

Q: With `COc1ccc(N(C)S(=O)(=O)c2cccc(C(=O)NC3CCCCCC3)c2)cc1` as the compound, how does the Potency read?
A: inconclusive [activator, single point]

Q: Which Potency does the source give for `CC(=O)c1c(CSc2ccccc2)oc2ccc(O)c(CN(C)C)c12` here?
A: inconclusive [activator, single point]

Q: Which Potency does the source give for `Cc1cccc(C2=NN(c3ccccc3)[C@@H](C(=O)N3CCOC3=O)[C@@H]2c2ccc(Cl)cc2)c1` here?
A: active: 2.31 µM

Q: With `O=C(NCc1ccccn1)c1cn(-c2ccccc2)nc1-c1ccc(Cl)cc1` as the compound, how does the Potency read?
A: inconclusive [activator, single point]

Q: With `Cc1cc(C)cc(C(=O)N2CCN(Cc3ccc4c(c3)OCO4)CC2)c1` as the compound, how does the “activity, positive = re-replication” value read?
A: inactive: 0.668%

Q: With `Cc1cc(S(=O)(=O)N2CCCC(N(C)CCc3ccccn3)C2)c(C)cc1Cl` (stereo not drawn) as the compound, how does the Potency read?
A: inconclusive [activator, single point]

Q: With `COc1ccc2ccccc2c1/C=N/NC(=O)c1nnn(-c2nonc2N)c1C(C)C` as the compound, how does the Potency read?
A: inconclusive [activator, full curve, poor fit]

Q: With `CSc1ccc(C(=O)/C=C/c2ccc(N)cc2)cc1` as the compound, how does the Potency read?
A: active: 23.1 µM

Q: For `O=[N+]([O-])c1cc(/C=N/n2c(-c3cccnc3)n[nH]c2=S)ccc1Cl`, which Potency is on record?
A: inconclusive [activator, single point]

Q: Which “activity, positive = re-replication” value does the source give for `COc1ccc(-n2cnnc2SCC(=O)c2ccc(S(=O)(=O)N3CCOCC3)cc2)cc1` here?
A: inactive: -2.19%

Q: Which activity, positive = re-replication does the source give for `Cc1cc2cc(CNC(=O)c3cccs3)ccc2n1C` here?
A: inconclusive: 96% [activator]

Q: With `NC(=O)CC(NC(=O)c1ccccc1)c1ccc(N2CCC(Cc3ccccc3)CC2)c([N+](=O)[O-])c1` (stereo not drawn) as the compound, how does the Potency read?
A: inconclusive [activator, single point]

Q: For `CN1CCN(S(=O)(=O)CC2(C)C3CCC2(C)C(=O)C3Br)CC1` (stereo not drawn), which Potency is on record?
A: inconclusive [activator, full curve, poor fit]
